Measurements: PubChem BioAssay AID2147 (National Center for Advancing Translational Sciences (NCATS), 2009)
Screen size: about 230,000 compounds; about 3,600 (1.6%) were called active. The inconclusive results got no clear call from the source; some entries with a clear call stand among them for comparison. Calls follow the shape of the dose curve; as a rule, active = well fitted inhibition curve with a large enough effect (not every such curve was filed as active); inconclusive = small, poorly fitted or top-dose-only effect, or another doubt; inactive = no such curve, though single readings can be large or run the other way. Potencies beside an inconclusive call are fits to weak or partial responses and may not hold up.

Each compound was assayed against Lysine-specific demethylase 4E (Homo sapiens) (UniProt B2RXH2) (assay: qHTS Assay for Inhibitors of Human Jumonji Domain Containing 2E (JMJD2E)). Settings: JMJD2E catalytic domain, FDH-coupled NADH fluorescence (FDH is formaldehyde dehydrogenase); series mostly up to 57.1 µM; activity change, negative = inhibition: at the top concentration.
Also: nearly all actives have a fitted effect of over 50% in size.
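For activity change, negative = inhibition in this document: 0% = wells with enzyme and -100% = buffer wells without enzyme.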
Potency is read from the fitted curve at half-maximal effect; tags tell the direction and shape of the fitted curve.

Chain of UniProt B2RXH2 (B2RXH2 whole entry, looked up, the tested form may be a part): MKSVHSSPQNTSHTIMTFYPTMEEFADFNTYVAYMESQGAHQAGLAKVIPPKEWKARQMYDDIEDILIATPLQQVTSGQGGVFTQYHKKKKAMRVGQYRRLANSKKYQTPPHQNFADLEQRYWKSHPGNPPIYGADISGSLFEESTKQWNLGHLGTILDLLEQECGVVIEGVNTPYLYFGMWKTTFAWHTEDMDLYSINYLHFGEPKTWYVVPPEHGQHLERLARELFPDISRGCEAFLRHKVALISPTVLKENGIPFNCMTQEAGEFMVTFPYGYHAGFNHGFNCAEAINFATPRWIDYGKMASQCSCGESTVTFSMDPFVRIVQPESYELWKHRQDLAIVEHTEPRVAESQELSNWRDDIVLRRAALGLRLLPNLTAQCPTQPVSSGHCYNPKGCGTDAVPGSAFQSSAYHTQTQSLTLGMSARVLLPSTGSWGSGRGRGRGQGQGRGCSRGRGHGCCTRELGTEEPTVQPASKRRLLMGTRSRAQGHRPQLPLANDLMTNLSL

Q: For `Cc1ccc(S(=O)(=O)Nn2c(C)nnc2-n2nc(C)cc2C)cc1`, which “activity change, negative = inhibition” value is on record?
A: inactive: -4.92%

Q: How did the Potency turn out when `COc1ccc2[nH]c3ccc(OC)cc3c2c1` was run?
A: inconclusive: 31.6 µM [inhibitor, partial curve]

Q: With `O=c1cc(-c2ccccc2)c2cc3c(cc2[nH]1)OCCO3` as the compound, how does the Potency read?
A: inconclusive: 35.5 µM [inhibitor, partial curve]

Q: For `CCN(CC)CCN1C(=O)C(O)=C(C(=O)c2ccco2)C1c1ccccn1` (stereo not given), which Potency is on record?
A: inconclusive: 39.8 µM [inhibitor, single point]

Q: With `O=C(/C=C/c1cccc([N+](=O)[O-])c1)NC(=S)Nc1cccc(NC(=O)c2ccccc2Cl)c1` as the compound, how does the “activity change, negative = inhibition” value read?
A: inactive: 1.36%

Q: How did the Potency turn out when `CC1(C)CC(=O)c2cc(OCC(=O)NCC3CCCO3)ccc2O1` (stereo not given) was run?
A: inconclusive: 31.6 µM [inhibitor, partial curve]

Q: With `O=C(Cn1cnc2ccccc21)N/N=C/c1ccccn1` as the compound, how does the “activity change, negative = inhibition” value read?
A: inactive: -3.41%

Q: With `O=C(c1ccco1)N1CCC(n2nnc3ccccc32)CC1` as the compound, how does the “activity change, negative = inhibition” value read?
A: inactive: 0.339%

Q: How did the Potency turn out when `COc1ccccc1N/N=C/c1c(CO)cnc(C)c1O` was run?
A: inconclusive: 35.5 µM [inhibitor, single point]

Q: For `COc1cc([N+](=O)[O-])cc(/C=N/NC(=O)Cn2cncn2)c1O`, which Potency is on record?
A: active: 14.1 µM

Q: How did the “activity change, negative = inhibition” value turn out when `NC(=O)c1cc[n+](CC2=C(C(=O)[O-])N3C(=O)[C@@H](NC(=O)Cc4cccs4)[C@@H]3SC2)cc1` was run?
A: inactive: 13.2% [at 25.5 µM]

Q: With `CNCCCOc1ccc(C)cc1OC` as the compound, how does the “activity change, negative = inhibition” value read?
A: inactive: -2.23%

Q: How did the Potency turn out when `COCCC1CCCCN1Cc1cn(-c2ccccc2)nc1-c1ccc2c(c1)OCO2` (stereo not given) was run?
A: inconclusive: 31.6 µM [inhibitor, partial curve]

Q: For `COc1cc2c(cc1OC)CN(CC(=O)Nc1ccc(Cl)c(S(=O)(=O)N(C)C)c1)CC2`, which Potency is on record?
A: inconclusive: 31.6 µM [inhibitor, single point]

Q: With `CCOC(=O)c1ccc(CC2S/C(=C(\C#N)C(C)=O)NC2=O)cc1` (stereo not given) as the compound, how does the Potency read?
A: inconclusive: 35.5 µM [inhibitor, single point]

Q: `CN(C)C(=O)c1c(-c2ccccc2)oc2ccc(O)cc12` was tested. Which Potency did it give?
A: inconclusive: 31.6 µM [inhibitor, partial curve]

Q: With `Cc1ccc(S(=O)(=O)N2CCCC2C(=O)O)cc1` (stereo not given) as the compound, how does the Potency read?
A: inconclusive: 39.8 µM [inhibitor, single point]

Q: How did the “activity change, negative = inhibition” value turn out when `Cc1n[nH]c(=S)n1/N=C/c1cccc(OCc2ccccc2)c1` was run?
A: inactive: -7.27%

Q: `O=C(Cc1cccs1)NCCN1CCOCC1` was tested. Which “activity change, negative = inhibition” value did it give?
A: inactive: -12.2%

Q: For `Cc1ccc(Cl)cc1N1CCN(C(=O)C2CCN(c3nnc(-n4cccc4)s3)CC2)CC1`, which “activity change, negative = inhibition” value is on record?
A: inactive: 2.44%

Q: With `O=C(CSc1nnc(Cc2csc(Nc3cccc(Cl)c3)n2)o1)N1CCc2ccccc21` as the compound, how does the “activity change, negative = inhibition” value read?
A: inactive: 0.0317%

Q: How did the “activity change, negative = inhibition” value turn out when `Cc1ccc(C(=O)NC(=S)Nc2ccc(N3CCOCC3)cc2)cc1C` was run?
A: inactive: -13.8%

Q: With `COc1ccc(-c2nn(-c3ccccc3)cc2C(=O)NC(=S)NNC(=O)c2ccncc2)cc1` as the compound, how does the Potency read?
A: inconclusive: 39.8 µM [inhibitor, single point]

Q: With `CCc1nc(SCC(=O)Nc2sc(C)c(C)c2C(=O)OC)c2ccccc2n1` as the compound, how does the “activity change, negative = inhibition” value read?
A: inactive: 5.06%

Q: How did the “activity change, negative = inhibition” value turn out when `CC(C)N(C(=O)/C=C/c1cccc([N+](=O)[O-])c1)C(C)C` was run?
A: inactive: -15.6%

Q: With `COc1ccc(-c2cc3nc[nH]c(=O)c3s2)cc1` as the compound, how does the Potency read?
A: inconclusive: 3.55 µM [inhibitor, full curve]

Q: Which Potency does the source give for `O=c1cc(C(F)(F)F)c2sc(N3CCCCC3)nc2[nH]1` here?
A: inconclusive: 25.1 µM [inhibitor, partial curve]

Q: `CCS(=O)(=O)Nc1cccc(C2=NN(S(=O)(=O)c3ccc(C)cc3)C(c3ccco3)C2)c1` (stereo not given) was tested. Which “activity change, negative = inhibition” value did it give?
A: inactive: -18.7%

Q: Which “activity change, negative = inhibition” value does the source give for `O=C(c1oc2ccccc2c1CSCc1ccccc1)N1CCN(c2ncccn2)CC1` here?
A: inactive: -12%

Q: For `S=C(Nc1cccnc1)Nc1cccc2cnccc12`, which Potency is on record?
A: active: 14.1 µM

Q: With `COC(=O)c1ccc([C@H]2C=C(C(=O)O)O[C@@H](OCc3ccc(CO)cc3)C2)cc1` as the compound, how does the Potency read?
A: inconclusive: 25.1 µM [inhibitor, single point]

Q: For `O=C1/C(=C\c2ccc(O)cc2)SC(=S)N1/N=C/c1ccc(O)cc1`, which “activity change, negative = inhibition” value is on record?
A: inactive: 1.48%

Q: Which “activity change, negative = inhibition” value does the source give for `COc1cc2c(C(=O)N3CCN(C)CC3)c(C)n(-c3ccccc3)c2cc1Br` here?
A: inactive: 0.285%

Q: How did the Potency turn out when `N#CC1=C2SCN(c3ccc(F)cc3)CN2C(=O)CC1c1cccc(F)c1` (stereo not given) was run?
A: active: 22.4 µM

Q: For `CCc1ccc(Nc2nnc(SCC(=O)Nc3sccc3C(N)=O)s2)cc1`, which Potency is on record?
A: inconclusive: 25.1 µM [inhibitor, single point]

Q: `CN(CC(=O)N1CCc2ccccc21)S(=O)(=O)c1ccc(Cl)cc1` was tested. Which “activity change, negative = inhibition” value did it give?
A: inactive: 1.98%

Q: For `COc1cc(/C=C/c2noc(-c3ccccc3O)n2)cc(OC)c1OC`, which Potency is on record?
A: inconclusive: 3.16 µM [inhibitor, partial curve]

Q: Which Potency does the source give for `CCOC(=O)c1cc(NC(=O)N2CCCc3ccccc32)c(C)nc1C` here?
A: inconclusive: 28.2 µM [inhibitor, single point]

Q: With `CCOc1ccccc1OCC(=O)Nc1ccc(N2CCCCC2)cc1` as the compound, how does the Potency read?
A: inconclusive: 39.8 µM [inhibitor, single point]

Q: How did the Potency turn out when `CCN(CC)Cc1c(O)ccc2c(=O)c(Oc3ccccc3OC)c(C)oc12` was run?
A: inconclusive: 12.6 µM [inhibitor, partial curve]

Q: Which “activity change, negative = inhibition” value does the source give for `CC(C)(C)OC(=O)[C@H](Cc1ccccc1)NC(=O)c1nc[nH]c1C(=O)N[C@@H](Cc1ccccc1)C(=O)OC(C)(C)C` here?
A: inactive: -5.56%

Q: Which Potency does the source give for `COc1cc(C/C=C/c2ccccc2)c(OC)cc1O` here?
A: inconclusive: 4.47 µM [inhibitor, single point]

Q: For `N#Cc1c(-c2ccccc2)nc(-c2ccncc2)[nH]c1=O`, which “activity change, negative = inhibition” value is on record?
A: inactive: -6.32%

Q: With `COc1cc(NC(=O)c2cc(OC)c(OC)c(OC)c2)c(OC)cc1NC(=O)CN1CCCCC1` as the compound, how does the “activity change, negative = inhibition” value read?
A: inactive: 2.75%

Q: Which Potency does the source give for `COCCCN(C(=O)c1ccco1)c1nc(-c2cc(OC)ccc2OC)cs1` here?
A: inconclusive: 35.5 µM [inhibitor, single point]

Q: With `Cc1cccn2c(=O)c3cc(C#N)c(=N)n(CCN4CCOCC4)c3nc12` as the compound, how does the Potency read?
A: inconclusive: 25.1 µM [inhibitor, partial curve]

Q: For `FC(F)(F)c1ccccc1NC(=S)Nc1cccc2cnccc12`, which Potency is on record?
A: inconclusive: 11.2 µM [inhibitor, partial curve]

Q: With `CC(=O)N1CC2(NC(=O)c3ccccc3N2)c2ccccc21` (stereo not given) as the compound, how does the Potency read?
A: inconclusive: 31.6 µM [inhibitor, partial curve]

Q: With `COc1ccc(-n2ccnc2)cc1` as the compound, how does the “activity change, negative = inhibition” value read?
A: inactive: 11.8%

Q: With `CCOC(=O)C1C(=O)C=C(c2ccc(C)cc2)CC1c1ccccc1` (stereo not given) as the compound, how does the “activity change, negative = inhibition” value read?
A: inactive: -7.88%

Q: `O=C(c1ccccc1)N1CCN(CC(O)Cn2ccc3ccccc32)CC1` (stereo not given) was tested. Which Potency did it give?
A: inconclusive: 39.8 µM [inhibitor, single point]

Q: `COc1ccc(OC)c(/C=C/C(=O)N(C)CC(=O)Nc2cc(C)ccc2C)c1` was tested. Which Potency did it give?
A: inconclusive: 22.4 µM [inhibitor, partial curve]

Q: How did the Potency turn out when `CN(C)CCCn1c(N)c(S(=O)(=O)c2ccccc2)c2nc3ccccc3nc21` was run?
A: inconclusive: 28.2 µM [inhibitor, partial curve]

Q: With `CC(C)NC(=S)N/N=C1\CCCCC1C1CCCCC1` (stereo not given) as the compound, how does the “activity change, negative = inhibition” value read?
A: inactive: 0.981%

Q: With `CCOC(=O)c1[nH]c2cc(OC)c(OC)cc2c1NC(=O)CN1CCN(c2ccc(OC)cc2)C(C)C1` (stereo not given) as the compound, how does the Potency read?
A: inconclusive: 23.8 µM [inhibitor, partial curve]

Q: Which Potency does the source give for `COc1ccc(/C=C/C(=O)N2CCCC2)cc1OC` here?
A: inconclusive: 28.2 µM [inhibitor, partial curve]

Q: How did the Potency turn out when `N#Cc1c(C(F)(F)F)cc(=O)[nH]c1SCC(=O)O` was run?
A: inconclusive: 35.5 µM [inhibitor, single point]

Q: How did the Potency turn out when `Cc1ccc(-c2nn3c(C)nnc3c3ccccc23)cc1S(=O)(=O)N(C)CCO` was run?
A: inconclusive: 39.8 µM [inhibitor, single point]

Q: For `Cc1cc(C)c(S(=O)(=O)c2ccccc2C)c(SCC(C)C)n1`, which Potency is on record?
A: inconclusive: 39.8 µM [inhibitor, single point]

Q: How did the Potency turn out when `CCOc1cc(/C=N/n2cnnc2)cc(Br)c1O` was run?
A: inconclusive: 39.8 µM [inhibitor, single point]

Q: Which Potency does the source give for `C[n+]1cccc2cccc([O-])c21` here?
A: active: 15.8 µM

Q: `Oc1ccccc1/C=N/Nc1nc2ccccc2o1` was tested. Which Potency did it give?
A: active: 28.2 µM

Q: Which Potency does the source give for `CCOC(=O)c1sc(NC(=O)c2ccncc2)nc1C` here?
A: inconclusive: 35.5 µM [inhibitor, single point]

Q: Which “activity change, negative = inhibition” value does the source give for `COc1cccc(CNC(=O)c2ccc(S(=O)(=O)N3CCCC3)cc2)c1` here?
A: inactive: -0.44%

Q: For `c1ccc(-n2c(SCc3ccncc3)nnc2-c2ccco2)cc1`, which Potency is on record?
A: inconclusive: 31.6 µM [inhibitor, single point]

Q: Which “activity change, negative = inhibition” value does the source give for `N#CC1=C(N)OC2=C(C(=O)CC(c3ccccc3)C2)C1c1ccc2c(c1)OCO2` (stereo not given) here?
A: inactive: -2.06%

Q: Which “activity change, negative = inhibition” value does the source give for `Cc1ccc(/C=C2\NC(=S)NC2=O)cc1[N+](=O)[O-]` here?
A: inactive: 11.6%

Q: For `CCN(CC)C(=O)COc1ccc2oc(-c3ccco3)cc(=O)c2c1`, which Potency is on record?
A: inconclusive: 28.2 µM [inhibitor, partial curve]

Q: `Cc1[nH]n(-c2ccccc2)c(=O)c1/C=N/N1C(=O)c2cccc3cccc(c23)C1=O` was tested. Which Potency did it give?
A: inconclusive: 39.8 µM [inhibitor, single point]

Q: How did the “activity change, negative = inhibition” value turn out when `CCOc1ccc(C2C3=C(Nc4nc(N)[nH]c(=O)c42)c2ccccc2C3=O)cc1` (stereo not given) was run?
A: inactive: -24%

Q: `CC1=CC(C)[C@H](/C=N/n2c(=O)[nH]c3c([nH]c4ccc(C)cc43)c2=O)C(C)C1` (stereo not given in full) was tested. Which Potency did it give?
A: inconclusive: 28.2 µM [inhibitor, partial curve]

Q: `O=C(N/N=C/c1ccc(N2CCOCC2)cc1)c1ccccn1` was tested. Which “activity change, negative = inhibition” value did it give?
A: inactive: -4.41%

Q: How did the Potency turn out when `COC(=O)CSc1nccc(-c2ccc(F)cc2)c1C#N` was run?
A: inconclusive: 35.5 µM [inhibitor, single point]

Q: How did the Potency turn out when `Cn1c(=O)c(-[n+]2ccccc2)c([O-])c2ccccc21` was run?
A: inconclusive: 35.5 µM [inhibitor, single point]

Q: With `O=C(NCc1ccc2c(c1)OCO2)Nc1ccc2ccccc2c1` as the compound, how does the Potency read?
A: inconclusive: 35.5 µM [inhibitor, single point]
